From PubChem BioAssay AID588855 (National Center for Advancing Translational Sciences (NCATS), 2011)
The campaign covered roughly 410,000 compounds. About 5,000 (1.2%) were called active. Inconclusive means that the source gave no clear call. Such entries were picked first, then a sample of the others. The call rests on the fitted dose curve; in most records, active means well fitted inhibition curve with a large enough effect; inconclusive means small, poorly fitted or top-dose-only effect; inactive means no such curve, though single readings can be large or run the other way. Potencies of inconclusive entries are doubtful fits and often do not repeat.

Experiment: qHTS for Inhibitors of TGF-b; further: nearly all actives have a fitted effect of over 65% in size
Details: HepG2 CAGA-GFP TGF-b/SMAD3 reporter, GFP fluorescence, 18 h, TGF-beta stimulated, 500 pg/mL final; series mostly up to 46.1 µM; activity, negative = inhibition: at the top concentration
In short: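 Cell-based qHTS in HEPG2 carrying a CAGA-GFP Smad reporter; compounds added before 500 pg/mL final TGF-beta, 18 h incubation at 37 degrees C, GFP fluorescence quantified per cell by imaging cytometry.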
On the % scale 0 is the no-effect control and ±100 the full control effect; potency means the concentration at half of the fitted maximal effect; tags describe the fitted curve by direction and shape.

SMILES | activity, negative = inhibition | Potency
CCOc1ccc(CCN2C(=S)N([C@@H](CC(C)C)CN3CCC[C@@H]3CN3C(=S)NC[C@@H]3CC(C)C)C[C@@H]2CC(C)C)cc1 | inactive: -13.9% | –
CNC(=O)COC(=O)c1ccc(OCC(=O)Nc2ccccc2OC)c(OC)c1 | – | inconclusive: 0.112 µM [inhibitor, full curve, poor fit]
O=C1/C(=C\c2ccc(O)cc2)CCC1CNc1ccc(Cl)cc1 (stereo not given) | – | inconclusive: 3.55 µM [inhibitor, full curve, poor fit]
CCOc1ccccc1C(=O)N1CCN(c2cccc(Cl)c2)CC1 | – | inconclusive: 3.16 µM [inhibitor, partial curve, poor fit]
COc1ccc(-c2nc3c4ccccc4ccn3c2CN2CCCCC2)cc1OC | – | inconclusive: 22.4 µM [inhibitor, single point]
CC[C@]12c3[nH]c4ccc(Cl)cc4c3CCN1C(=O)[C@@H](CC(=O)NCc1cccc(C(F)(F)F)c1)C[C@@H]2C(=O)N1CCN(C(=O)C2CC2)CC1 | – | active: 14.1 µM
COc1cccc(CNC(=O)CCC2CCCN(C/C=C/c3ccccc3OC)C2)c1 (stereo not given) | inactive: -0.857% | –
Clc1ccccc1/C=C/c1ccnc2ccccc12 | – | inconclusive: 35.5 µM [inhibitor, single point]
CC(C)C1C(=O)N(Cc2cn(CCC3OCCO3)nn2)CCS(=O)(=O)N1Cc1ccc(-c2ccncc2)cc1 (stereo not given) | inactive: -2.21% | –
CCN1C(=O)[C@H]2[C@@H](c3ccc(-c4cccc(Cl)c4)cc3)N3CCCC[C@@]3(C(=O)OC)[C@H]2C1=O | – | inconclusive: 3.98 µM [inhibitor, partial curve]
C=CCOC(=O)C1=C(C)OC(N)=C(C#N)C1c1ccc(OC)c(CSc2ccccn2)c1 (stereo not given) | inactive: -1.09% | –
COc1ccc(CNC(=O)CCc2cn(Cc3cc(C)ccc3C)c3ccccc23)cc1OC | – | inconclusive: 11.2 µM [inhibitor, partial curve]
O=C(Cc1ccc(Cl)cc1)Nc1ccccc1Sc1ccccc1 | – | inconclusive: 17.8 µM [inhibitor, single point]
N#C/C(=C\c1ccc(F)cc1)C(=O)NCC1CCCO1 (stereo not given) | inactive: -8.75% | –
C=CCON1C(=O)c2ccccc2C1=O | – | inconclusive: 35.5 µM [inhibitor, single point]
Cc1cccc(N2CCN(C(=O)c3cc4c(=O)n(C)c5ccccc5c4n3C)CC2C)c1 (stereo not given) | – | inconclusive: 22.4 µM [inhibitor, single point]
COc1ccc(-c2cc(C(=O)N3CCN(c4ccccc4)CC3)no2)cc1OC | inactive: -27.5% | –
CCOC(=O)C(C)Sc1nc(N2CCOCC2)c2c(c1C#N)CC(C)(C)OC2 (stereo not given) | – | inconclusive: 0.794 µM [inhibitor, full curve]
O=[N+]([O-])c1ccc2nc(/C=C/c3ccc(Cl)cc3)[nH]c2c1 | – | inconclusive: 35.5 µM [inhibitor, single point]
COC(=O)[C@H](Cc1ccccc1)NC(=O)NCC1CCCO1 (stereo not given in full) | – | inconclusive: 8.91 µM [inhibitor, partial curve]
Cc1noc(C)c1CSc1nc2sc(C)c(C)c2c(=O)n1C1CCCC1 | inactive: 3.3% | –
COc1cc(C(C)=O)ccc1OCC(=O)N1CCC(Cc2ccccc2)CC1 | inactive: -13.5% | –
CCOc1ccccc1NC(=O)CN1C(=O)COc2ccc(S(=O)(=O)N3CCCCCC3)cc21 | inactive: -28.1% | –

SMILES | activity, negative = inhibition | Potency
CCCCOc1cccc(C(=O)Nc2ccc(S(=O)(=O)Nc3nnc(CC)s3)cc2)c1 | – | inconclusive: 25.1 µM [inhibitor, single point]
COc1ccc(OC)c(/C=C/C(=O)c2ccc(Cl)cc2)c1 | – | inconclusive: 35.5 µM [inhibitor, single point]
S=c1[nH]nc(-c2ccccc2)n1/N=C/c1ccc(Cl)cc1 | – | inconclusive: 15.8 µM [inhibitor, single point]
CCOc1ccccc1-n1c(C)nc2cc(C(=O)O)ccc21 | – | inconclusive: 35.5 µM [inhibitor, single point]
CCC1CC=CC2C1C(=O)N(Cc1ccccc1)C2c1ccoc1 (stereo not given) | – | active: 10 µM
CC(=O)Oc1ccc(CCC(C)OC(C)=O)cc1 (stereo not given) | inactive: 23.3% | –
Cc1nc(SCC(=O)c2ccc(Cl)cc2)c([N+](=O)[O-])[nH]1 | – | inconclusive: 35.5 µM [inhibitor, single point]
CCC(=O)Nc1cccc(C(=O)/C=C/c2ccc(F)cc2)c1 | – | active: 20 µM
COC(=O)c1ccc(S(=O)(=O)N2CCCCCC2)cc1 | inactive: 2.59% | –
Cc1c(C(=O)Nc2ccc(-c3nnc4n3CCCCC4)cc2)oc2c1ccc1ccccc12 | – | inconclusive: 35.5 µM [inhibitor, single point]
CCCCN(C=O)c1c(CC)nc2ccc(C(=O)NCCCN3CCCC3=O)cn12 | – | inconclusive: 35.5 µM [inhibitor, single point]
CCOC(=O)N1CCc2c(sc(NCc3sccc3C)c2C(=O)Nc2cc(OC)ccc2OC)C1 | – | inconclusive: 10 µM [inhibitor, partial curve, poor fit]
CCOc1ccc(NC(=O)CN2CCN(Cc3ccccc3)S2(=O)=O)cc1 | – | inconclusive: 22.4 µM [inhibitor, single point]
COc1ccc(-c2c(C)nn3c(-c4ccccc4)cc(C)nc23)cc1 | inactive: 2.94% | –
CN(CCOCCOc1ccc(Cl)cc1Br)Cc1ccccc1 | inactive: 2.3% | –
COc1cc(/C=C/C(=O)OCC(=O)N(C)CC(=O)Nc2ccc(F)cc2)ccc1OC(F)F | inactive: 25.5% | –
Cc1nc2c(C(=O)NCc3ccccc3Cl)c[nH]n2c(=O)c1Cc1cccc(Cl)c1 | – | inconclusive: 31.6 µM [inhibitor, single point]
CCN(c1ccccc1)S(=O)(=O)c1ccc2[nH]cc(C(=O)NC3CCCCC3)c(=O)c2c1 | – | active: 7.94 µM
COc1cccc(CCN2C(=O)CCC3=C2CCC3=O)c1 | inactive: 0.833% | –
CC(NC(=O)CSc1n[nH]c(-c2ccccc2Cl)n1)c1nc2ccccc2n1C (stereo not given) | inactive: -29% | –
CCC(C)NC(=O)CN(c1cc(Cl)ccc1OC)S(C)(=O)=O (stereo not given) | – | inconclusive: 35.5 µM [inhibitor, single point]
Cc1c(Cl)cccc1NC(=O)CC(c1cccs1)N1Cc2ccccc2C1=O (stereo not given) | – | inconclusive: 17.8 µM [inhibitor, single point]
